Measured values reported in PubChem BioAssay AID1508624 (National Center for Advancing Translational Sciences (NCATS), 2021).
The campaign covered roughly 48,000 compounds. About 120 (0.25%) were called active. Roughly 4% stayed inconclusive and do not appear here. Calls follow the shape of the dose curve; as a rule, active = well fitted activation curve with a large enough effect; inconclusive = small, poorly fitted or top-dose-only effect, or another doubt; inactive = no such curve, though single readings can be large or run the other way. This is one part of the list.

Test: Primary qHTS for Identification of Small Molecule Activators of Huntingtin-Antisense Promoter Activity; also: nearly all actives have a fitted effect of over 55% in size
Conditions: HEK293 HTT-AS promoter firefly luciferase reporter (activity 0% = vehicle and -100% = no light), 24 h; series mostly up to 57.5 µM; activity change, positive = activation: at the top concentration
How it was run: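 Luminescence was read after Dual-Glo reagent and a 10 min room-temperature incubation. Values were normalized to vehicle (0% activity) and zero RLU (-100% activity). Reporter HEK293 cells had been exposed to compounds (up to 57.5 uM final) for 24 h.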

Activity change, positive = activation, inactive:
CCNc1oc(-c2ccc(COc3ccc(Cl)cc3)o2)nc1C#N -34%
CCCCOc1ccc(CNC(=O)Cc2ccc(NC(=O)N3CCSc4ncccc43)cc2)cc1 -30.7%
O=C(CSC1=Nc2ccccc2N=C(c2ccc(F)cc2)C1)NCc1ccccc1Cl -31.9%
Cc1nn(-c2ccc(N3CCOCC3)nn2)c(C)c1CCC(=O)NCc1ccccc1F -11.8%
O=C(O)c1cn(C2CC2)c2cc(N3CCNCC3)c(F)cc2c1=O
CCOc1ccc(CNC(=O)c2sc3ncnc(N(C)C4CCCCC4)c3c2C)cc1 -10.6%
NC(=O)c1ccccc1NC(=O)Cn1nc(Cc2cccnc2)c2ccccc2c1=O -23%
COc1ccc(CNC(=O)c2ccc(-c3nc(CSc4ccccc4)c(C)o3)cc2)c(OC)c1 12%
CC(=O)c1cccc(NC(=O)c2cc3nc(-c4ccc(Br)cc4)cc(C(F)(F)F)n3n2)c1 -33.9%
N#Cc1c[nH]n2c(NC3CCCCC3)c(-c3cccc(Cl)c3)nc12 36.9%
Cc1ccc(-c2nc(C)c(CCNC(=O)C(=O)Nc3ccc4c(c3)OCO4)s2)cc1 6.37%
COc1ccc(CCN2C(=O)N(c3ccccc3)C(=O)C2CC(=O)Nc2ccccc2)cc1 (stereo unspecified) -0.406%
CCOC(=O)C1CCN(CCC(=O)Nc2ccc(OC)cc2)CC1 -24.4%
CCCN1C(=O)C2(c3ccccc31)c1c(oc3ccc(C)cc3c1=O)C(=O)N2CCOC (stereo unspecified) -10.4%
O=C(Nc1ccc(Cl)cc1)Nc1ccc(Cl)c(C(F)(F)F)c1 -66.6%
Cc1nc(N2CCOCC2)c2c(C(=O)N3CCN(c4cccc(C)c4C)CC3)c(C)oc2n1 -16.6%
COc1cc(C(=O)N2CC(=O)Nc3ccc(C)cc3C2c2ccc(F)cc2)cc(OC)c1OC (stereo unspecified) 2.28%
Cc1cccc(NC(=O)CSc2nc3c(oc4ccccc43)c(=O)n2-c2ccc(F)cc2)c1 -21.1%
COc1ccc2c(CNCCc3ccccc3)c(C(=O)O)n(Cc3cccc(F)c3)c2c1 -32%
COc1ccc(Nc2cc(C(=O)NCc3ccccc3)c3ccccc3n2)c(OC)c1 16.1%
O=S(=O)(c1ccc2nc(N3CCN(c4ccccc4)CC3)ccc2c1)N1CCCCC1 -16.3%
CCOc1ccc(-c2cn3c(n2)sc2cc(C(=O)NC4CCCc5ccccc54)ccc23)cc1 (stereo unspecified) 5.48%
N#CC(=C(N)Sc1ccccc1N)C(C#N)=C(N)Sc1ccccc1N -30.7%
Cc1ccc(NC(=O)CC(C)S(=O)(=O)c2ccc3c(c2)NC(=O)CO3)cc1C (stereo unspecified) -1.72%
COc1ccc(NC(=O)c2cn3c4c(ccc(Cl)c4c2=O)OC(C)C3)cc1OC (stereo unspecified) -19.3%
CSc1ncc(C(=O)Nc2ccc(C(C)=O)cc2)c(-c2ccccc2)n1 26.9%
